According to PubChem BioAssay AID504832 (National Center for Advancing Translational Sciences (NCATS), 2011):
Hit rate of the full screen: of about 310,000 compounds, about 18,000 (5.8%) were called active. The shares of active, inactive and inconclusive entries below differ from those in the screen. The call rests on the fitted dose curve; in most records, active means well fitted inhibition curve with a large enough effect; inconclusive means small, poorly fitted or top-dose-only effect, or another doubt; inactive means no such curve, though single readings can be large or run the other way. Potencies of inconclusive entries are left out as doubtful fits.

Assay: Primary qHTS for delayed death inhibitors of the malarial parasite plastid, 48 hour incubation
Conditions: P. falciparum luciferase growth in erythrocytes; series mostly up to 28.7 µM; activity change, negative = inhibition: at the top concentration
Outline: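 In quantitative HTS format, infected erythrocytes bearing luciferase-reporter parasites were treated for a single generation at 37 C. Luminescence after adding detection reagent served as the growth measure.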
On the % scale 0 is the no-effect control and ±100 the full control effect; potency means the concentration at half of the fitted maximal effect; tags describe the fitted curve by direction and shape.

Structure (SMILES)	Potency	activity change, negative = inhibition
FC(F)(F)c1ccc(Cl)c(NC(=S)N/N=C/c2ccccc2C(F)(F)F)c1	inconclusive [inhibitor, partial curve, poor fit]	–
COc1ccccc1NC(=O)C(C)Sc1nnnn1C (centres undefined)	–	inactive: 15.2%
Cc1ccc(C(=O)OC(C)C(=O)NC(C)CCc2ccccc2)o1 (centres undefined)	–	inactive: 8.49%
O=C(O)c1ccc2c(c1)ncn2C1CCCC1	–	inactive: 101%
O=C(Nc1ccccc1)N(CCCN1CCOCC1)Cc1cc2cc3c(cc2[nH]c1=O)OCCO3	active: 13.1 µM	–
COc1cccc(C(C(=O)NC2CCCC2)N(Cc2ccco2)C(=O)c2ccco2)c1OC (centres undefined)	inconclusive [inhibitor, partial curve]	–
OCCOc1ccc(CN2CCN(CCCc3ccccc3)C(CCO)C2)cc1 (centres undefined)	–	inactive: -10.4%
CC1=C(C(=O)OC2CCCCCC2)C(c2ccc(C)o2)C2=C(CCCC2=O)N1 (centres undefined)	inconclusive [inhibitor, partial curve, poor fit]	–
Cc1ccc(N(C(C)C(=O)N2CCOCC2)S(C)(=O)=O)cc1C (centres undefined)	inconclusive [inhibitor, partial curve]	–
Cc1ccc(CNC(=O)CCS(=O)(=O)c2cc3c(cc2Cl)NC(=O)CO3)cc1	inconclusive [inhibitor, single point]	–
COC(=O)N/N=C/c1cc(C)n(-c2cccc3ccccc23)c1C	active: 7.38 µM	–
O=C(OCC(=O)c1ccccc1Br)c1ccncc1	inconclusive [inhibitor, partial curve]	–
CC(C)(C)OC(=O)NCCCCCc1nnc(SCc2ccc(F)cc2)o1	inconclusive [inhibitor, single point]	–
CN(C)S(=O)(=O)n1cc(/C=C(\NC(=O)c2ccccc2Cl)C(=O)NCCCN2CCOCC2)c2ccccc21	inconclusive [inhibitor, single point]	–
O=C(COC(=O)c1cccnc1Cl)Nc1cc(S(=O)(=O)N2CCCCCC2)ccc1Cl	inconclusive [inhibitor, single point]	–
Cc1ccc(S(=O)(=O)c2nc(S(C)(=O)=O)sc2N2CCC3(CC2)OCCO3)cc1	inconclusive [inhibitor, single point]	–
O=C(CN1C(=O)c2ccccc2S1(=O)=O)N1CCc2ccccc21	inconclusive [inhibitor, partial curve, poor fit]	–
CN(C)S(=O)(=O)c1ccc(NC(=O)c2cc(-c3cccs3)nc3ccccc23)cc1	inconclusive [inhibitor, single point]	–
N#Cc1c(NC(=O)c2nc3ncccn3n2)sc2c1CCCCC2	–	inactive: 78.6%
COCCCNC(=O)CN(c1cc(OC)ccc1OC)S(=O)(=O)c1ccccc1	inconclusive [inhibitor, partial curve]	–
CCc1ccc(C(=O)N2CCN(c3ccc(NC(=O)c4ccco4)cc3)CC2)cc1	–	inactive: 32.3%
O=C(NC1CC2CCC1C2)c1ccc(CN2CCOCC2)cc1 (centres undefined)	–	inactive: 46.9%
COc1ccc(CC(=O)N2CCC(CCC(=O)Nc3ccccc3)CC2)cc1	inconclusive [inhibitor, single point]	–

Structure (SMILES)	Potency	activity change, negative = inhibition
O=C(CN1C(=O)c2cccnc2Oc2ccc(Cl)cc21)Nc1ccccc1F	inconclusive [inhibitor, single point]	–
O=C(Nc1ccccc1)c1cccc(S(=O)(=O)Oc2ccc([N+](=O)[O-])cc2)c1	–	inactive: 24.5%
COc1ccc2cc(C(=O)N3CCN(c4cccc(C)c4C)CC3)[nH]c2c1	inconclusive [inhibitor, partial curve, poor fit]	–
CCOC(=O)C1CCCN(C(=O)c2ccc(CNc3c(N4CCC(C)CC4)c(=O)c3=O)cc2)C1 (centres undefined)	inconclusive [inhibitor, partial curve]	–
CC(C)(C)C(=O)CN1C(=O)NC2(CCc3ccccc32)C1=O (centres undefined)	–	inactive: 11.6%
Cc1cc(C)c(S(=O)(=O)N2CCCc3ccccc32)c(C)c1	active: 13.1 µM	–
Cc1nc2ccc(NC(=O)c3cccs3)cc2c(=O)n1Cc1ccc(Cl)cc1	inconclusive [inhibitor, full curve]	–
CCOc1ccc(S(=O)(=O)N2CCN(C(=S)NCc3ccco3)CC2)cc1	active: 2.94 µM	–
COc1cc2c(cc1OC)C13CCN4CC5=CCOC6CC(=O)N2C1C6C5CC43 (centres undefined) (tested in a mixture with another compound)	inconclusive [inhibitor, single point]	–
O=C(CSc1nc2ccsc2c(=O)n1NC(=O)c1ccccc1)NCc1ccco1	–	inactive: 40.2%
CN(C)CCN(CC1CCCN(Cc2ccccc2F)C1)C(=O)c1ccc(Cl)cc1 (centres undefined)	inconclusive [inhibitor, partial curve, poor fit]	–
Cc1c(C#N)c(N)nc(Cl)c1C#N	inconclusive [inhibitor, single point]	–
CCCCn1c(N)c(N(Cc2ccccc2OC)C(=O)CCSC)c(=O)[nH]c1=O	–	inactive: 8.63%
COc1ccc(NS(=O)(=O)c2cc3c4c(c2)C(C)C(=O)N4CCC3)cc1 (centres undefined)	–	inactive: -12.7%
COc1cccc(-c2csc(NC(=O)Nc3ccccc3)n2)c1	–	inactive: 9.47% [at 0.00184 µM]
CC(C)CC(NC(N)=O)C(=O)OCC(=O)N(Cc1ccccc1)Cc1ccccc1 (centres undefined)	–	inactive: 3.74%
Cc1ccc2[nH]c(CN3CCC(CO)(CC4CCCCO4)CC3)c(C)c2c1 (centres undefined)	active: 9.28 µM	–
COC(=O)c1ccc(NS(=O)(=O)c2cc(-c3cc(C)no3)ccc2OC)cc1	inconclusive [inhibitor, partial curve, poor fit]	–
COC(=O)c1c(-c2ccc(SC)cc2)sc2ccccc12	inconclusive [inhibitor, partial curve]	–
CN(CC(=O)Nc1cccc(F)c1)C(=O)c1cc(-c2ccccc2)nc2ccccc12	inconclusive [inhibitor, partial curve]	–
CCCCCCCOc1ccc(C2CC(=O)N(C)C2=O)cc1 (centres undefined)	–	inactive: 25.9%
Cc1cc(C(=O)N/N=C/c2cccnc2)c2ccccc2n1	–	inactive: 2.29%
Cc1cccc(N=C2NC(=O)/C(=C/c3cccn3C)S2)c1	inconclusive [inhibitor, partial curve]	–

Structure (SMILES)	Potency	activity change, negative = inhibition
O=C(CCNS(=O)(=O)c1ccccc1)NCCSc1ccc(Br)cc1	inconclusive [inhibitor, partial curve, poor fit]	–
O=C(OCc1c(-c2ccccc2)ncc2ccccc12)c1ccc(Br)cc1	inconclusive [inhibitor, single point]	–
O=C1C(Cc2ccc(O)cc2)NC(=S)N1Cc1ccccc1 (centres undefined)	active: 2.94 µM	–
O=C(Nc1ccccc1N1CCOCC1)c1ccc(S(=O)(=O)NCc2ccco2)cc1	–	inactive: 16.4%
CCOC(=O)c1ccc(NC(=S)N(CCCN2CCCCCC2)Cc2ccco2)cc1	inconclusive [inhibitor, single point]	–
COc1ccc(NC(=O)c2c(C(F)(F)F)nn(C)c2SCc2ccccc2)cc1	inconclusive [inhibitor, single point]	–
Fc1ccc(Sc2nc(-c3ccccc3)nnc2C(F)(F)F)cc1	active: 8.28 µM	–
COc1ccccc1CNC(=O)C(C)c1ccc([N+](=O)[O-])cc1 (centres undefined)	inconclusive [inhibitor, single point]	–
Cc1ccccc1NC(=S)NC12CN3CN(CN(C3)C1)C2	–	inactive: 10.5%
Cn1c(=O)c2cc3c(nc2n(C)c1=O)CC(c1ccccc1)CC3=O (centres undefined)	inconclusive [inhibitor, full curve, poor fit]	–
COc1cc(/C=N/n2c(-c3ccccc3)n[nH]c2=S)cc(OC)c1OC	–	inactive: -1.15%
CC1(C)CC(=O)C/C(=N/Nc2nc3ccccc3s2)C1	inconclusive [inhibitor, single point]	–
COCCn1c(=O)[nH]c(=O)c2c1nc(-c1ccc(-c3ccc(Cl)cc3[N+](=O)[O-])o1)n2Cc1ccccc1	active: 4.65 µM	–
COc1ccccc1N1CCN(CCNC(=O)Nc2cccc(C)c2C)CC1	inconclusive [inhibitor, single point]	–
CCN(CC)S(=O)(=O)c1ccc(C)c(NC(=O)CSc2nc3ccc(C)cc3[nH]2)c1	inconclusive [inhibitor, partial curve, poor fit]	–
COc1cccc(-c2ccc(NC(=O)C3CCCN(Cc4cnn(C)c4)C3)cc2)c1 (centres undefined)	inconclusive [inhibitor, partial curve, poor fit]	–
CCc1ccc(S(=O)(=O)Nc2cccc(-c3ccc4nnc(C)n4n3)c2)s1	inconclusive [inhibitor, partial curve, poor fit]	–
CC(C)C(=O)Nc1cccc(C(=O)N2CCCCC2C)c1 (centres undefined)	inconclusive [inhibitor, single point]	–
CC(C)OC(=O)CSc1nc2cccnc2n1C1CCCCC1	inconclusive [inhibitor, single point]	–
NNC(=O)c1cc(-c2ccccc2)sc1N	active: 9.28 µM	–
CCCCn1c(N)c(N(CCOC)C(=O)CSc2n[nH]c(-c3ccc(C)cc3)n2)c(=O)[nH]c1=O	inconclusive [inhibitor, partial curve, poor fit]	–
NC(=O)C1CCN(CC(O)COc2ccc(-c3ccccc3)cc2)CC1 (centres undefined)	inconclusive [inhibitor, single point]	–
CC(C)NC(=O)[C@@H]1C[C@@]1(C)[C@@H](NC(=O)OCc1ccccc1)c1ccccc1	–	inactive: 1.26%
